In all, about 310,000 compounds went through this assay and about 14,000 (4.5%) showed an effect of 50% or more. The effect is printed as a negative number. The list shows a part of the results.
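Also: peak tail current of the secondary pulse compared with the same well before compound.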

The experiment deals with human ether-à-go-go-related gene (hERG) potassium channel (human, UniProt Q12809). Description: primary screen, population patch clamp on CHO cells stably expressing hERG.
human ether-à-go-go-related gene (hERG) potassium channel, sequence (Q12809 whole entry, looked up): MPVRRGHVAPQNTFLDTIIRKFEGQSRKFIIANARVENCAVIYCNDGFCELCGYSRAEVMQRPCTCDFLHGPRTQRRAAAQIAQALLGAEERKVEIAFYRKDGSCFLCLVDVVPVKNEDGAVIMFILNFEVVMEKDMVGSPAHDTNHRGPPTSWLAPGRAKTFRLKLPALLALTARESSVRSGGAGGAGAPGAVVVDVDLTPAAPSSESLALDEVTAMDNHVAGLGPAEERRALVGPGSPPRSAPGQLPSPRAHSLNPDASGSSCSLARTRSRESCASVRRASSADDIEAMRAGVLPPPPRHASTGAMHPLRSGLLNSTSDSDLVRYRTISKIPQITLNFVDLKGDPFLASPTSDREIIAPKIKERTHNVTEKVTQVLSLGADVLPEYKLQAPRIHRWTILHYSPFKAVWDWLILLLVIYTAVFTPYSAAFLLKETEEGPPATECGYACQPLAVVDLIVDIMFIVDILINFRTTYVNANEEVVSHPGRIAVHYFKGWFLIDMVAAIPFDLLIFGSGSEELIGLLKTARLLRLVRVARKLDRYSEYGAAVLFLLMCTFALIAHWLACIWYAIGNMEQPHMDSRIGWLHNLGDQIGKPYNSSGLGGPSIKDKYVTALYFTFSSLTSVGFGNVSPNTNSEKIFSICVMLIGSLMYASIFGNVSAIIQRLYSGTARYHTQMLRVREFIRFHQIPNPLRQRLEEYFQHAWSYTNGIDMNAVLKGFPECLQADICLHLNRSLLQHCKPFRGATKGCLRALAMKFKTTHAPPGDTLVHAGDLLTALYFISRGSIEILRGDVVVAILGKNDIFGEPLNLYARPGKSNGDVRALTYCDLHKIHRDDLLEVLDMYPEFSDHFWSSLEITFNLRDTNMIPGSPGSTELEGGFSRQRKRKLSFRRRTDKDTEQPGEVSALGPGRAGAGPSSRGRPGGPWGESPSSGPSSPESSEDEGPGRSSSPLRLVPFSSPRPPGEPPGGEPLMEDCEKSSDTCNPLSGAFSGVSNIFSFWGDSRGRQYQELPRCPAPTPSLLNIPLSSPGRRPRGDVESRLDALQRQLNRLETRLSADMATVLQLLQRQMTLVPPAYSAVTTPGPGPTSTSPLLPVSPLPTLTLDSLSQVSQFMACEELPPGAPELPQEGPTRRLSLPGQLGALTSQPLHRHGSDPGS
In the case of `CNc1ccc(Br)cc(C(=O)/C=C/c2cccc(OC)c2)c1=O`, the “hERG current change (%, negative = inhibition) at 10uM” value was -1.19%. The figure for `COc1ccccc1NC(=O)CCN1C(=O)c2ccccc2C1=O` is 4.09%. Then `CCOC(=O)/C=C1\SCC(=O)N1CCOc1cccc(Br)c1`, with -5.78%; and `O=C(NC(NC(=S)Nc1ccccc1)C(Cl)(Cl)Cl)c1cccc(Cl)c1` (centres unmarked), with 7.91%; and `O=C(O)c1cc(-c2cccs2)nn1-c1ccc(F)cc1`, with 20.8%. On to `Cc1ccc(Cn2nc(C)c(C(=O)N3CCN(S(=O)(=O)/C=C/c4ccccc4)CC3)c2C)cc1`, for which the “hERG current change (%, negative = inhibition) at 10uM” value is on record as -35.1%. The figure for `O=C1CCC(=O)N1CCc1c[nH]c2ccccc12` is 11.1%.

For the compound `Cc1ccc(N=C2NC(=O)/C(=C\c3ccsc3)S2)c(C)c1`, the “hERG current change (%, negative = inhibition) at 10uM” value came out at 11.3%. The figure for `CCOC(=O)c1c(NC(=O)COC(=O)c2nc(Cl)ccc2Cl)sc(C(=O)NC)c1C` is -1.21%; for `Cc1ccc2cccc(OCC(=O)Nc3ccc(N4CCOCC4)cc3)c2n1` it is -4.52%. Then `Cc1nn(C)c(C)c1S(=O)(=O)N(CC(=O)Nc1ccccn1)c1ccc(C(C)C)cc1`, with -7.4%; and `O=C(O)[C@@H]1CCCN1C(=O)CCc1c[nH]c2ccccc12`, with 17.3%; and `NC(=O)c1ccc(NS(=O)(=O)c2ccccc2F)cc1`, with -0.645%.

In the case of `O=c1[nH]c(N2CCOCC2)nc2c1CCCC2`, the “hERG current change (%, negative = inhibition) at 10uM” value turned out to be 10.2%. The figure for `C#CCOCCOCCOCCNc1nc(N2CCN(C(=O)[C@H](C)n3cc(CCC[NH+]=C(N)N)nn3)CC2)nc(N2CCN(C(=O)[C@H](C)n3cc(CCC[NH+]=C(N)N)nn3)CC2)n1.[Cl-]` is -6.89%; for `CCSc1nnc(NC(=O)c2c(-c3ccccc3Cl)noc2C)s1` it is 0.719%.

With `Cc1cccc(NC(=O)CSCC(=O)N(CCC(C)C)c2c(N)n(Cc3ccccc3)c(=O)[nH]c2=O)c1`, the “hERG current change (%, negative = inhibition) at 10uM” value is recorded as -8.08%.

For `NC(=O)CSc1oc(-c2ccc(F)cc2)nc1S(=O)(=O)c1ccccc1`, the “hERG current change (%, negative = inhibition) at 10uM” value was -8.24%. Take `CCCn1c(SCC(=O)Nc2sc(C)c(C)c2C#N)nnc1C(C)C`: the “hERG current change (%, negative = inhibition) at 10uM” value was -9.76%. The figure for `Cc1cc(O)c2c(c1)OC(C)(C)C1=C2CC(C)CC1` (centres unmarked) is 7.38%; for `CCN(CC)CCNCc1ccc(OCc2ccc(Cl)nc2)c(OC)c1` it is -14.6%. `CCC(=O)Nc1cc(SCCO)cc([N+](=O)[O-])c1`: the “hERG current change (%, negative = inhibition) at 10uM” value is 5.96%. The figure for `CCOC(=O)N1CCN(C(=O)C2CCC(=O)N(CCCc3ccccc3)C2)CC1` (centres unmarked) is 3.58%; for `Fc1ccc(N2CCN(Cc3cc4c(cc3Br)OCO4)CC2)cc1` it is 7.74%.

Regarding `COC(=O)c1ccccc1NC(=O)N1c2ccccc2CC1C` (centres unmarked), the “hERG current change (%, negative = inhibition) at 10uM” value is recorded as -11.5%. The figure for `CC(NS(=O)(=O)c1ccc2[nH]c(=O)c(=O)[nH]c2c1)C(=O)O` (centres unmarked) is 14.4%.

On to `CC(C)N1CC(COc2ccc(Cl)cc2Cl)OC1=O` (centres unmarked), for which the “hERG current change (%, negative = inhibition) at 10uM” value is -44.6%.

Consider `CCCOC(=O)c1ccc(Oc2cn[nH]c2-c2ccc(O)cc2O)cc1`, for which the “hERG current change (%, negative = inhibition) at 10uM” value came out at 24.6%. Then `COc1ccc(/C=C/C(=O)c2cc(Br)ccc(=O)c2O)cc1`, with 11.9%; and `CCN(CC)CCCN=Cc1c(O)n(Cc2ccc(F)cc2)c(=O)[nH]c1=O`, with -33.7%; and `CC1CN(C(=O)c2cc(-c3ccc(Cl)s3)nc3ccccc23)CC(C)O1` (centres unmarked), with -6.18%. Then `CC1CCCCN1C(=O)c1ccc(C(=O)N2CCCCC2C)cc1` (centres unmarked), with -4.56%; and `COC(=O)c1cc(OC)c(OC)cc1NC(=S)N1CCC(C(N)=O)CC1`, with -4.78%; and `COc1cc2c(cc1OC)CN(C(=O)CCOc1ccccc1C)CC2`, with -5.81%. Then `CC(C)=CCN1CCN(Cc2coc3ccc(C)cc3c2=O)CC1CCO` (centres unmarked), with -23.6%.

In the case of `COC(=O)CSc1nnc(CCc2nc3ccccc3[nH]2)n1C`, the “hERG current change (%, negative = inhibition) at 10uM” value is given as 6.11%.

As for `COCCn1c(-c2ccccc2)cnc1N`, the “hERG current change (%, negative = inhibition) at 10uM” value was -16%. With `CSc1nnc(Cn2c(=O)sc3ccccc32)n1-c1cccc(Cl)c1`, the “hERG current change (%, negative = inhibition) at 10uM” value is -37.9%.

For `CCOc1ccc(C(=O)Nc2nc3ccccc3[nH]2)cc1OCC`, the “hERG current change (%, negative = inhibition) at 10uM” value is -22.8%. Take `COC(=O)C1SCC2C(=O)N(Cc3ccc(Cl)c(Cl)c3)CC(=O)N21` (centres unmarked): the “hERG current change (%, negative = inhibition) at 10uM” value is reported as -10.1%. Take `COc1cc(/C=C/C(=O)OCc2csc(CC(=O)Nc3ccc(C)cc3)n2)ccc1OCC#N`: the “hERG current change (%, negative = inhibition) at 10uM” value was 7.63%. The figure for `Cc1nc2ccccc2c(=O)n1-c1cccc([N+](=O)[O-])c1` is 8.49%; for `Cc1ccccc1-c1nnn(C/C(N)=N/O)n1` it is 20.9%. Then `CN(C(=O)c1ccc(NC(=O)Cc2cccc(NC(=O)C3CCN(C(=O)CCc4ccccc4)CC3)c2)cc1)C1CCCC1`, with 7.84%. The figure for `CCC(C)(C)n1nnnc1C(c1ccc(C)cc1)N1CCCC1.Cl` (centres unmarked) is -11.7%; for `O=C1NC[C@H](Cc2ccccc2)N(CCc2cccc(F)c2)C1=O` it is -7.97%. `COc1ccccc1OCCSc1nc2ccccc2n1CC(N)=O`: the “hERG current change (%, negative = inhibition) at 10uM” value is 18.7%. Then `Cc1ncc(C[n+]2csc(CCOC(=O)C34CC5CC(CC(C5)C3)C4)c2C)c(N)n1.Cl.[Cl-]`, with -31.3%. Take `CCC(C)n1c(O)c(/C=N/NC(=O)c2ccncc2)c(=O)[nH]c1=S` (centres unmarked): the “hERG current change (%, negative = inhibition) at 10uM” value is on record as -2.03%. Regarding `COC(=O)c1ccc(-c2ccco2)n1Cc1nc(-c2ccc(OC)c(OC)c2)oc1C`, the “hERG current change (%, negative = inhibition) at 10uM” value is reported as -2.63%. Then `COc1ccc(CCN(C)C2CCCN(S(=O)(=O)N(C)C)C2)cc1OC` (centres unmarked), with -8.26%; and `O=C1CC(c2cccnc2)=NN1c1ccccc1`, with 17.5%. Take `CCOc1ccc(Br)cc1CC(=O)O`: the “hERG current change (%, negative = inhibition) at 10uM” value is 0.738%.

For the compound `CC1CCCCN1C(=O)Cn1c(=O)oc2cc(S(=O)(=O)N3CCCC3)ccc21` (centres unmarked), the “hERG current change (%, negative = inhibition) at 10uM” value worked out at 7.08%. The figure for `Cc1ccc(Nc2oc(C)nc2C#N)cc1` is 5.2%; for `CCOC(=O)C1CCCN(CCC(=O)Nc2cccc(C)c2)C1.Cl` (centres unmarked) it is -24.5%.

For the origin of these results see PMC4336329 (PLoS ONE, 2015).
